Laboratory results as given in a collection of fitness landscapes (doi:10.1016/j.celrep.2020.107928).
In all, about 81,000 sequences were measured (“one-hybrid fitness for binding parS DNA”: median about -0.17, highest 2% from about 0.51 on). The list shows a part of the results.

B1: Caulobacter ParB omega fusion; a variant is named by its letters at X, in order, B8GW30 (parent)
chain: MESVVVGEPGMSEGRRGLGRGLSALLGEVDAAPAQAPGEQLGGSREAPIEILQRNPDQPRRTFREEDLEDLSNSIREKGVLQPILVRPSPDTAGEYQIVAGERAWRAAQRAGLKTVPIMVRELDDLAVLEIGIIENVQRADLNVLEEALSYKVLMEKFERTQENIAQTIGKSXSHVANXMRLLXLPDEVQSYLVSGELTAXHARAIAAAADPVALAKQIIEGGLSVRETEALARKAPNLSAGKSKGGRPPRVKDTDTQALESDLSSVLGLDVSIDHRGSTGTLTITYATLEQLDDLCNRLTRGI

Variants of: B1
Assay: one-hybrid fitness for binding parS DNA (scaled: cognate 1, non-cognate 0); higher = stronger binding
Details: with parS DNA site
Procedure, shortened: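 Pre- and post-selection plasmids were Illumina-sequenced, three replicate libraries were pooled, and any variant with under 10 reads was removed. The libraries were Caulobacter ParB with four specificity codons randomised, selected in E. coli USO through a HIS3 reporter whose site is 19 bp from the promoter. Cells grew 48 hours at 37°C on M9 without histidine, with 0.1 mM IPTG and 5 mM 3-AT. Fitness is the log change in variant-to-wild-type read ratio, rescaled against cognate and non-cognate.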

one-hybrid fitness for binding parS DNA, 0.353:
RQEY

one-hybrid fitness for binding parS DNA, 0.211:
RQCF

one-hybrid fitness for binding parS DNA, ≤ 0.2:
WKRR
APKN
RGNH
FMYT
TMYT
EFEK
NKAG
ADFS
TIGS
QMCS
NAQP
TGDE
QWWR
LRAN
TPVN
AFPW
QRWY
LVHL
YIHG
WPSC
RRTF
ADCY
RGNL
KTAI
MNPR
NRSW
SWSF
ERDS
SSMC
PKAS
QITT
NGHS
RNGM
VVRL
KDHP
MTCR
AHGW
LSYN
HGHI
ACLL
LAIH
PQAN
INSI
RLHV
QFMT
TNCR
PHYC
MGDY
YLRC
MAWF
MRQE
YEEG
VEKC
VPNY
KAKD
LNWR
HTQS
YVFG
GHVG
HYCF
EGHE
CREK
EAIW
PKLV
SRHM
CTKG
CSKM
TDRN
TSKK
CLGR
QFSI
PITE
WQAT
AKKG
TVHN
SSYV
DQRA
SSMG
IMMR
IPMS
HIRQ
QYRK
SVQI
RKVL
WWPS
GHMR
DCWG
LNHM
YTAH
EEAT
MARH
TTYR
WDNV
STTM
ERSE
RGDF
EKHR
RKHL
NDSY
DNGR
DDYC
TDIR
TSDW
HCKR
HSLG
QTTA
PYPF
ERVT
FASS
FEFD
SESY
QRGY
FINL
GAPR
VSVA
VFGK
STIF
FLTP
DAPY
VGQR
IPGS
VVCC
MANG
FTRG
WGTC
FRKM
RVGH
AYFQ
WTLT
IQIR
RVGK
WSLC
CFPC
SIWR
TERV
SKHN
GQIC
SNYP
VFRT
HVTW
PRYG
PQWT
GKRG
TGWC
MGAT
QQSK
YNVL

one-hybrid fitness for binding parS DNA, 0.383:
RFYY

one-hybrid fitness for binding parS DNA, 1.01:
RVAS

one-hybrid fitness for binding parS DNA, 1.03:
RLYG

one-hybrid fitness for binding parS DNA, 0.833:
RKGS
